# Measurements: the supplement of paper PMC8728848
# The list shows a part of the results.
# B1: PX14367B-bvu-516-23-516 (Bacteroides vulgatus) (protein)
# chain: LDTIPTTYVDAGSVFGKTGDAEKVLNGGWNYLMETFNSYANPGYGAMLRANDAMGSDVVLNSKYGFRTHNEFSAIYGKGGTNTLSWLLAYRVINDCNGVLDNIDAAEGTQADRNRIKGQALALRGFLYLHLASCYSFAIDKDPDAVCAPIYTQSTDETIAAEGKPASSVSEVYAQSINDLEEALELIPETYVRDAKHKIDNEVVLGILSRACLYARQWEKAKTYSDKLLAKDNYLMTESEYKAGFNSVDNKEWIWGHAQTNDQSNASYQFHYLDTTTKGSYYYSFNVDPYFRDLFEDGDYRKEMLFWATDPGADVESAAYVWMRNSKFRFRDIENQLGDIVLMRVAEIYLINAEAKAHLNDPDAINKLNDLKTARGAKTIHTNLSQQDLLETIWLERRKELWGEGFSLIDIIRNQQTVVRNAYPEGPIDYIYTDENGQTHTLKKKTQGHRFFNFPDKSAFCPNSKYYLYRITDSEELANKNLYKDHPKLSIYTK
# Key:
# Experiment in all cases: glycan array binding signal (z-score within array); higher = stronger binding
# Conditions in all cases: glycan notation: IUPAC condensed, linker removed
# [1] = target: Gal(b1-4)Glc
# Method in brief: (§1)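 Columns mapping to the same glycan were averaged after glycan names were converted to IUPAC-condensed notation. The data come from 3228 arrays in the Consortium for Functional Glycomics database, limited to those with an available protein sequence. Binding is reported as a within-array Z-score averaged across arrays of one protein sequence and across linkers.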
# [2] = target: Gal(b1-4)Glc6S
# Method in brief: as §1
# [3] = target: Gal(b1-4)GlcNAc
# Method in brief: as §1
# [4] = target: Gal(b1-4)GlcNAc(a1-6)Gal(b1-4)GlcNAc
# Method in brief: as §1
# [5] = target: Gal(b1-4)GlcNAc(b1-2)Man
# Method in brief: as §1
# [6] = target: Gal(b1-4)GlcNAc(b1-2)Man(a1-3)Man(b1-4)GlcNAc(b1-4)GlcNAc
# Method in brief: as §1
# [7] = target: Gal(b1-4)GlcNAc(b1-2)Man(a1-3)[Gal(b1-4)GlcNAc(b1-2)Man(a1-6)]Man(b1-4)GlcNAc(b1-4)GlcNAc
# Method in brief: as §1
# [8] = target: Gal(b1-4)GlcNAc(b1-2)Man(a1-3)[Gal(b1-4)GlcNAc(b1-2)Man(a1-6)]Man(b1-4)GlcNAc(b1-4)[Fuc(a1-6)]GlcNAc
# Method in brief: as §1
# [9] = target: Gal(b1-4)GlcNAc(b1-2)Man(a1-3)[Gal(b1-4)GlcNAc(b1-2)Man(a1-6)][Gal(b1-4)GlcNAc(b1-4)]Man(b1-4)GlcNAc(b1-4)[Fuc(a1-6)]GlcNAc
# Method in brief: as §1
# [10] = target: Gal(b1-4)GlcNAc(b1-2)Man(a1-3)[Gal(b1-4)GlcNAc(b1-2)Man(a1-6)][GlcNAc(b1-4)]Man(b1-4)GlcNAc(b1-4)[Fuc(a1-6)]GlcNAc
# Method in brief: as §1
# [11] = target: Gal(b1-4)GlcNAc(b1-2)Man(a1-3)[GlcNAc(b1-2)Man(a1-6)]Man(b1-4)GlcNAc(b1-4)GlcNAc
# Method in brief: as §1
# [12] = target: Gal(b1-4)GlcNAc(b1-2)Man(a1-3)[GlcNAc(b1-4)][Gal(b1-4)GlcNAc(b1-2)Man(a1-6)]Man(b1-4)GlcNAc(b1-4)GlcNAc
# Method in brief: as §1
# [13] = target: Gal(b1-4)GlcNAc(b1-2)Man(a1-3)[Man(a1-6)]Man(b1-4)GlcNAc(b1-4)GlcNAc
# Method in brief: as §1
# [14] = target: Gal(b1-4)GlcNAc(b1-2)Man(a1-6)Man(b1-4)GlcNAc(b1-4)GlcNAc
# Method in brief: as §1
# [15] = target: Gal(b1-4)GlcNAc(b1-2)Man(a1-6)[GlcNAc(b1-2)Man(a1-3)]Man(b1-4)GlcNAc(b1-4)GlcNAc
# Method in brief: as §1
# [16] = target: Gal(b1-4)GlcNAc(b1-2)Man(a1-6)[Man(a1-3)]Man(b1-4)GlcNAc(b1-4)GlcNAc
# Method in brief: as §1
# [17] = target: Gal(b1-4)GlcNAc(b1-2)[Gal(b1-4)GlcNAc(b1-4)]Man(a1-3)[Gal(b1-4)GlcNAc(b1-2)Man(a1-6)]Man(b1-4)GlcNAc(b1-4)GlcNAc
# Method in brief: as §1
# [18] = target: Gal(b1-4)GlcNAc(b1-2)[Gal(b1-4)GlcNAc(b1-4)]Man(a1-3)[Gal(b1-4)GlcNAc(b1-2)[Gal(b1-4)GlcNAc(b1-6)]Man(a1-6)]Man(b1-4)GlcNAc(b1-4)GlcNAc
# Method in brief: as §1
# [19] = target: Gal(b1-4)GlcNAc(b1-2)[Gal(b1-4)GlcNAc(b1-4)]Man(a1-3)[GlcNAc(b1-4)][Gal(b1-4)GlcNAc(b1-2)Man(a1-6)]Man(b1-4)GlcNAc(b1-4)GlcNAc
# Method in brief: as §1
# [20] = target: Gal(b1-4)GlcNAc(b1-2)[Gal(b1-4)GlcNAc(b1-4)]Man(a1-3)[GlcNAc(b1-4)][Gal(b1-4)GlcNAc(b1-2)[Gal(b1-4)GlcNAc(b1-6)]Man(a1-6)]Man(b1-4)GlcNAc(b1-4)GlcNAc
# Method in brief: as §1
# [21] = target: Gal(b1-4)GlcNAc(b1-2)[Gal(b1-4)GlcNAc(b1-6)]Man(a1-6)[Gal(b1-4)GlcNAc(b1-2)Man(a1-3)]Man(b1-4)GlcNAc(b1-4)GlcNAc
# Method in brief: as §1
# [22] = target: Gal(b1-4)GlcNAc(b1-2)[Gal(b1-4)GlcNAc(b1-6)]Man(a1-6)[Gal(b1-4)GlcNAc(b1-2)Man(a1-3)]Man(b1-4)GlcNAc(b1-4)[Fuc(a1-6)]GlcNAc
# Method in brief: as §1
# [23] = target: Gal(b1-4)GlcNAc(b1-2)[Gal(b1-4)GlcNAc(b1-6)]Man(a1-6)[GlcNAc(b1-4)][Gal(b1-4)GlcNAc(b1-2)Man(a1-3)]Man(b1-4)GlcNAc(b1-4)GlcNAc
# Method in brief: as §1
# [24] = target: Gal(b1-4)GlcNAc(b1-2)[Gal(b1-4)GlcNAc(b1-6)]Man(a1-6)[GlcNAc(b1-4)][Gal(b1-4)GlcNAc(b1-2)[Gal(b1-4)GlcNAc(b1-4)]Man(a1-3)]Man(b1-4)GlcNAc(b1-4)[Fuc(a1-6)]GlcNAc
# Method in brief: as §1
# [25] = target: Gal(b1-4)GlcNAc(b1-3)Gal(b1-3)GalNAc
# Method in brief: as §1
# [26] = target: Gal(b1-4)GlcNAc(b1-3)Gal(b1-3)GlcNAc
# Method in brief: as §1
# [27] = target: Gal(b1-4)GlcNAc(b1-3)Gal(b1-4)Glc
# Method in brief: as §1
# [28] = target: Gal(b1-4)GlcNAc(b1-3)Gal(b1-4)GlcNAc
# Method in brief: as §1
# [29] = target: Gal(b1-4)GlcNAc(b1-3)Gal(b1-4)GlcNAc(b1-2)Man(a1-3)[Gal(b1-4)GlcNAc(b1-3)Gal(b1-4)GlcNAc(b1-2)Man(a1-6)]Man(b1-4)GlcNAc(b1-4)GlcNAc
# Method in brief: as §1
# [30] = target: Gal(b1-4)GlcNAc(b1-3)Gal(b1-4)GlcNAc(b1-2)Man(a1-3)[Gal(b1-4)GlcNAc(b1-3)Gal(b1-4)GlcNAc(b1-2)Man(a1-6)]Man(b1-4)GlcNAc(b1-4)[Fuc(a1-6)]GlcNAc
# Method in brief: as §1
# [31] = target: Gal(b1-4)GlcNAc(b1-3)Gal(b1-4)GlcNAc(b1-2)[Gal(b1-4)GlcNAc(b1-3)Gal(b1-4)GlcNAc(b1-6)]Man(a1-6)[Gal(b1-4)GlcNAc(b1-3)Gal(b1-4)GlcNAc(b1-2)Man(a1-3)]Man(b1-4)GlcNAc(b1-4)GlcNAc
# Method in brief: as §1
# [32] = target: Gal(b1-4)GlcNAc(b1-3)Gal(b1-4)GlcNAc(b1-2)[Gal(b1-4)GlcNAc(b1-3)Gal(b1-4)GlcNAc(b1-6)]Man(a1-6)[Gal(b1-4)GlcNAc(b1-3)Gal(b1-4)GlcNAc(b1-2)Man(a1-3)]Man(b1-4)GlcNAc(b1-4)[Fuc(a1-6)]GlcNAc
# Method in brief: as §1
# [33] = target: Gal(b1-4)GlcNAc(b1-3)Gal(b1-4)GlcNAc(b1-3)Gal(b1-4)GlcNAc
# Method in brief: as §1
# [34] = target: Gal(b1-4)GlcNAc(b1-3)Gal(b1-4)GlcNAc(b1-3)Gal(b1-4)GlcNAc(b1-2)Man(a1-3)[Gal(b1-4)GlcNAc(b1-3)Gal(b1-4)GlcNAc(b1-3)Gal(b1-4)GlcNAc(b1-2)Man(a1-6)]Man(b1-4)GlcNAc(b1-4)GlcNAc
# Method in brief: as §1
# [35] = target: Gal(b1-4)GlcNAc(b1-3)Gal(b1-4)GlcNAc(b1-3)Gal(b1-4)GlcNAc(b1-2)Man(a1-3)[Gal(b1-4)GlcNAc(b1-3)Gal(b1-4)GlcNAc(b1-3)Gal(b1-4)GlcNAc(b1-2)Man(a1-6)]Man(b1-4)GlcNAc(b1-4)[Fuc(a1-6)]GlcNAc
# Method in brief: as §1
# [36] = target: Gal(b1-4)GlcNAc(b1-3)Gal(b1-4)GlcNAc(b1-3)Gal(b1-4)GlcNAc(b1-2)[Gal(b1-4)GlcNAc(b1-3)Gal(b1-4)GlcNAc(b1-3)Gal(b1-4)GlcNAc(b1-6)]Man(a1-6)[Gal(b1-4)GlcNAc(b1-3)Gal(b1-4)GlcNAc(b1-3)Gal(b1-4)GlcNAc(b1-2)Man(a1-3)]Man(b1-4)GlcNAc(b1-4)[Fuc(a1-6)]GlcNAc
# Method in brief: as §1
# [37] = target: Gal(b1-4)GlcNAc(b1-3)Gal(b1-4)GlcNAc(b1-3)Gal(b1-4)GlcNAc(b1-3)Gal(b1-4)GlcNAc(b1-2)Man(a1-3)[Gal(b1-4)GlcNAc(b1-3)Gal(b1-4)GlcNAc(b1-3)Gal(b1-4)GlcNAc(b1-3)Gal(b1-4)GlcNAc(b1-2)Man(a1-6)]Man(b1-4)GlcNAc(b1-4)GlcNAc
# Method in brief: as §1
binder,measurement,setting,value
B1,glycan array binding signal (z-score),[1],-0.33
same,glycan array binding signal (z-score),[2],-0.083
same,glycan array binding signal (z-score),[3],-0.302
same,glycan array binding signal (z-score),[4],-0.357
same,glycan array binding signal (z-score),[5],-0.225
same,glycan array binding signal (z-score),[6],-0.302
same,glycan array binding signal (z-score),[7],-0.219
same,glycan array binding signal (z-score),[8],0.006
same,glycan array binding signal (z-score),[9],-0.016
same,glycan array binding signal (z-score),[10],-0.366
same,glycan array binding signal (z-score),[11],-0.17
same,glycan array binding signal (z-score),[12],0.131
same,glycan array binding signal (z-score),[13],-0.244
same,glycan array binding signal (z-score),[14],-0.199
same,glycan array binding signal (z-score),[15],-0.241
same,glycan array binding signal (z-score),[16],4.25
same,glycan array binding signal (z-score),[17],-0.186
same,glycan array binding signal (z-score),[18],-0.285
same,glycan array binding signal (z-score),[19],1.28
same,glycan array binding signal (z-score),[20],-0.05
same,glycan array binding signal (z-score),[21],-0.322
same,glycan array binding signal (z-score),[22],0.627
same,glycan array binding signal (z-score),[23],1.51
same,glycan array binding signal (z-score),[24],-0.287
same,glycan array binding signal (z-score),[25],-0.357
same,glycan array binding signal (z-score),[26],0.381
same,glycan array binding signal (z-score),[27],-0.243
same,glycan array binding signal (z-score),[28],-0.337
same,glycan array binding signal (z-score),[29],-0.115
same,glycan array binding signal (z-score),[30],0.011
same,glycan array binding signal (z-score),[31],0.488
same,glycan array binding signal (z-score),[32],0.037
same,glycan array binding signal (z-score),[33],-0.311
same,glycan array binding signal (z-score),[34],0.186
same,glycan array binding signal (z-score),[35],2.6
same,glycan array binding signal (z-score),[36],7.91
same,glycan array binding signal (z-score),[37],0.812
